# Assay results: article PMC4336329 (PLoS ONE, 2015)
# The whole screen tested about 310,000 compounds, of which about 14,000 (4.5%) showed an effect of 50% or more. Effects have a minus sign here. The list shows a part of the results.
# Biological target: human ether-à-go-go-related gene (hERG) potassium channel (human, UniProt Q12809)
# Test: primary screen, population patch clamp on CHO cells stably expressing hERG
# 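Also: peak tail current of the secondary pulse compared with the same well before compound.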
# Chain of human ether-à-go-go-related gene (hERG) potassium channel (Q12809 whole entry, looked up): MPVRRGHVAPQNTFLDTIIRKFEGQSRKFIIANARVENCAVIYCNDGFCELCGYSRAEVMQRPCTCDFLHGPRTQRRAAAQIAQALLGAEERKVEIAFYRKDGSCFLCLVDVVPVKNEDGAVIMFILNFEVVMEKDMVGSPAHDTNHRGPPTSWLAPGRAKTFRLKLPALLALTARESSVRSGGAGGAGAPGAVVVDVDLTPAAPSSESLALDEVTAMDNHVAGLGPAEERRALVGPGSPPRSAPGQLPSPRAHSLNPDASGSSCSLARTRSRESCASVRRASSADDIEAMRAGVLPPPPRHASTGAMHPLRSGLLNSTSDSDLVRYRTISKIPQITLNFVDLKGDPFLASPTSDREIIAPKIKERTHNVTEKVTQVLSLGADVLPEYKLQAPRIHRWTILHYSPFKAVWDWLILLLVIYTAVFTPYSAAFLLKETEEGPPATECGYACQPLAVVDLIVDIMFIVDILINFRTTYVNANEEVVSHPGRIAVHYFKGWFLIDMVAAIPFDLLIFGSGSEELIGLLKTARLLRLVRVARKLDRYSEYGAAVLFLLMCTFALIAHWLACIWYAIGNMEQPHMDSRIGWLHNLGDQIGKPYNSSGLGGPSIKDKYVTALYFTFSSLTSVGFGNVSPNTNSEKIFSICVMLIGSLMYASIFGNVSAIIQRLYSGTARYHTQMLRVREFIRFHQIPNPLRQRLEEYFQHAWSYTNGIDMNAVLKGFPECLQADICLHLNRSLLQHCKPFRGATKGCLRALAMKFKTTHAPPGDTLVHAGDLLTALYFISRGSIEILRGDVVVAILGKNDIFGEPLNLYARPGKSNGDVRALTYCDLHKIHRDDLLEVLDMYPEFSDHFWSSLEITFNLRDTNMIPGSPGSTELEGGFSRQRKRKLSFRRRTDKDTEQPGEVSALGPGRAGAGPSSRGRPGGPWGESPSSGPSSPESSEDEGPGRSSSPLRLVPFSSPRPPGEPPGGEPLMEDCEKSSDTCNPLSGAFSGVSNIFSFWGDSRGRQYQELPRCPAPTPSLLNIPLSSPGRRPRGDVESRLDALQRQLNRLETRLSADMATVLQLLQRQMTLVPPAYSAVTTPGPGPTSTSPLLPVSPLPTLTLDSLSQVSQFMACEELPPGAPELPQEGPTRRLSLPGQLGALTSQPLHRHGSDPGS
row,Compound,"hERG current change (%, negative = inhibition) at 10uM [%]"
1,COc1ccccc1CNC(=O)CCn1c(=O)sc2ccccc21,-5.44
2,Br.Cc1nc2ccc(NC3=NCCCCC3)cc2s1,3.35
3,Cc1[nH]n(-c2ccccc2)c(=O)c1/C=N/NC(=O)C(C)C,21.7
4,CCN(CC)CCn1c2ccc(Cl)cc2c2nc(C)sc21.Cl,-68.2
5,COC(=O)C1=C(c2ccccc2)C[C@@H]2CC[C@H]1N2C(=O)NCCS(C)=O (stereo partly drawn),21.3
6,Cc1c([N+](=O)[O-])cnc(Sc2ccccc2)c1[N+](=O)[O-],2.44
7,Cc1occc1C(=O)Nc1cc(C(F)(F)F)ccc1Cl,7.62
8,C=CCn1cc(C(=O)OCC)c(=O)c2ccc(F)cc21,5.56
9,CN(CCOc1ccccc1)C(=O)c1cc(S(=O)(=O)N2CCCCC2)ccc1Cl,-42.7
10,CC1(C)NC(=O)N(CCOc2cccc(Oc3ccccc3)c2)C1=O,-12.9
11,O=c1c2c(nc3nc(NCc4ccc(Cl)cc4)[nH]n13)CCC2,23.2
12,COc1ccc(C2/C(=C(/O)c3ccc4c(c3)CC(C)O4)C(=O)C(=O)N2CCCN2CCOCC2)cc1 (stereo not drawn),8.55
13,COc1ccccc1C(=O)NC(=O)COC(=O)c1ccc([N+](=O)[O-])cc1,7
14,COc1cc(/C=C(\NC(C)=O)C(=O)Nc2cccc(O)c2)ccc1OC(C)=O,-30.8
15,CC(C)CC(NS(=O)(=O)c1cc(C(=O)O)ccc1Cl)C(=O)O (stereo not drawn),22.8
16,CCn1cc(C(=O)NC2CCCCCC2)c(=O)c2cc(S(=O)(=O)N3CCCCC3)ccc21,8.24
17,Cc1ccc(S(=O)(=O)Oc2ccc3ccc(O)cc3c2)cc1,7.55
18,Cc1cc(C)cc(C(=O)NCC(=O)OCC(=O)N(C)C2CCS(=O)(=O)C2)c1 (stereo not drawn),17.7
19,O=C(N/N=C\C=C\c1ccc(Br)cc1)c1ccc2c(c1)OCO2,11.7
20,O=C(NNC1=Nc2cc([N+](=O)[O-])ccc2OC1)c1ccccc1Cl,0.199
21,CSc1ccc(/C=N/NC(=O)CNc2ccc3ccccc3c2)cc1,11.2
22,COc1ccc(NC(=O)CSc2c(C)nn(-c3nnc(C)c(=O)[nH]3)c2C)cc1,23.6
23,CC(C(=O)N1CCN(c2ccccc2)CC1)c1ccc([N+](=O)[O-])cc1 (stereo not drawn),-42.7

row,Compound,"hERG current change (%, negative = inhibition) at 10uM [%]"
1,Cc1cccnc1NC1(C(F)(F)F)N=C2SCCN2C1=O (stereo not drawn),16.6
2,COC(=O)[C@H](CCSC)NC(=O)Nc1cccc(Br)c1,12.8
3,Cc1c(C(=O)OCc2nc3scc(-c4ccccc4)c3c(=O)[nH]2)cccc1[N+](=O)[O-],12.8
4,CCCCN(C)CCCNC(=O)c1cc(-c2cccs2)nc2ccccc12,-85.6
5,CCOC(=O)C1CCN(C(=O)Cc2c(C(=O)O)n(CC)c3ccccc23)CC1,14.3
6,COc1ccc(C(=O)NC2CCSc3ccccc32)cc1F (stereo not drawn),6.53
7,N#CC1(c2ccccc2)CCCN1C(=O)c1ccccc1Br (stereo not drawn),1.6
8,CNC(=S)NN(C)c1nc(C)cc(C)n1,11.2
9,CCOC(=O)C1(Cc2ccccc2)CCN(CC2CC=CCC2)CC1 (stereo not drawn),-54.9
10,CN(C)/C=C/c1onc(-c2c(F)cccc2Cl)c1C#N,-2.45
11,CC(C)N(Cc1ccccc1)C(=O)CN1C(=O)NC(Cc2ccccc2)(c2ccccc2)C1=O (stereo not drawn),6.78
12,COc1ccccc1C(=O)N/C(N)=N/c1nc2ccccc2o1,1.36
13,CCCNCC1C(Oc2ccc(Cl)cc2)C(=O)N1c1ccccc1C (stereo not drawn),-48.6
14,CCOC(=O)c1cc(-c2csc(Nc3ccccc3Cl)n2)on1,-1.98
15,CC1CCN(C(=O)CCNC(=O)c2ccccc2)CC1,35.7
16,CC(=O)Nc1ccc(S(=O)(=O)NNC(=O)c2ccc([N+](=O)[O-])cc2)cc1,-0.42
17,CSc1ccc(NC(=O)/C=C/C(=O)O)cc1,7.64
18,CCOC(=O)C1CCN(C(=O)c2ccccc2NC(=O)C2=C(C)OCCS2)CC1,19.6
19,CN(Cc1ccccc1)C(=O)c1cc2cc(F)ccc2[nH]1,13.4
20,CCNC(=O)COC(=O)c1cccc(Br)c1,4.94
21,CCOC(=O)[C@H]1[C@H]2COc3ccc(OC)cc3[C@@H]2N2C(=O)CN(Cc3ccc(Cl)cc3)C(=O)[C@@]12C,-12.2
22,CC(=O)NCCC(=O)Nc1ccc(F)cc1C,11.7
